Screen size: about 46,000 compounds; about 60 (0.1%) were called active. Another 3% or so got no clear call; they are omitted. The call rests on the fitted dose curve; in most records, active means well fitted inhibition curve with a large enough effect; inconclusive means small, poorly fitted or top-dose-only effect; inactive means no such curve, though single readings can be large or run the other way. Some of the results follow.
Assay: Primary qHTS assay for Inhibitors of ovarian cancer metastasis using an organotypic tumor microenvironment (TME) model. Further: nearly all actives have a fitted effect of over 65% in size.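 On activity change, negative = inhibition: plate controls were DMSO wells for no effect and tomatine positive control wells for full effect.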
Details: SKOV3ip1-GFP adhesion/invasion on 3D omental model, fluorescence; series mostly up to 45.8 µM; activity change, negative = inhibition: at the top concentration
How it was run: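 qHTS, 4-pt dose (0.36-46 umol/L); SKOV3ip1-GFP, 1,200 cells/well, no FBS; primary omental fibroblast/mesothelial co-culture 48 h pre-grown; 2 h RT + 16 h 37 C; PBS wash, 4% PFA; GFP count 488/509 nm.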

outcome, inactive:
COc1cc2cc(CNc3ccccc3)c(=O)n(CC(=O)Nc3cccc(Cl)c3C)c2cc1OC
CCOc1ccccc1C1CC(=O)Nc2c1c(=O)n(C)c1ncnn21 (stereo not given)
CCCCN(CC)CCCNC(=O)c1c(C)oc2ncnc(N3CCOCC3)c12
Cc1ccc(NCc2cccn2-c2nnc(N3CCC(C(=O)NCCc4ccc(Cl)cc4)CC3)s2)cc1
CCc1nn(CC(=O)NCCc2ccc(OC)cc2OC)c(=O)c2cc3occc3n12
COc1ccccc1CNC(=O)C1CCN(c2nc3ccc(Cl)cc3[nH]2)CC1
Cc1csc2nc(COC(=O)c3ccccc3NC(=O)c3ccc(C(C)(C)C)cc3)cc(=O)n12
COc1ccc(-c2cc(C(F)(F)F)nc(NCCc3ccccc3)n2)cc1OC
COc1ccc2oc(=O)c(C(=O)N3CCN(c4ccc(C)cc4)CC3)cc2c1
CCOc1cccc2sc(N(Cc3cccnc3)C(=O)c3ccc(C#N)cc3)nc12
Cc1cc(NC(=O)CCNS(=O)(=O)c2cccc3nsnc23)ccc1Br
O=C(Nc1ccc(-c2nc3cc(Cl)ccc3o2)cc1)c1cc2ccccc2o1
CC1CCN(c2nc3ccc(C(=O)NCc4ccccc4)cc3s2)CC1
CC(=O)c1c(C)oc2c1cc(NS(=O)(=O)c1ccc(Cl)c(C)c1)c1ccccc12
O=S(=O)(NCc1nc2cccnc2n1Cc1ccccc1Cl)c1ccc(F)c(Cl)c1
CCc1ccc(S(=O)(=O)c2nnn3c2nc(Nc2ccc(NC(C)=O)cc2)c2sccc23)cc1
Cc1ccc(-n2c(Cc3ccccc3)nnc2SCc2nc(-c3cccs3)no2)cc1C
CCOC(=O)C1CCCN(Cc2cn3c(-c4cccc(Br)c4)nnc3s2)C1 (stereo not given)
Cc1nc(-c2ccc(C)c(N3CCN(C(=O)Nc4cccc(Cl)c4C)CC3)c2)no1
Cc1cccc(OCC(=O)Nc2nnc(S(=O)(=O)N3CCc4ccccc43)s2)c1
COc1ccc(CCC(=O)NC2CC(=O)N(c3ccc(OC)cc3)C2)cc1 (stereo not given)
CCN(C(=O)c1cn(CC)c(=O)c2cc(OC)c(OC)cc12)c1ccccc1F
CCC(C(=O)Nc1cc(F)ccc1F)n1nc(C)c2c(C)n(-c3ccc(C)cc3)nc2c1=O (stereo not given)
CCN1CCN(C(=O)N[C@H](C(=O)N[C@@H]2C(=O)N3C(C(=O)O)=C(CSc4nnnn4C)CS[C@@H]23)c2ccc(O)cc2)C(=O)C1=O inactive [at 15.1 µM]
O=C(CSCc1ccc(F)cc1)N1CCc2c([nH]c3ccccc23)C1c1ccc(Cl)cc1 (stereo not given)
COc1cc(C(=O)Nc2ccccc2-c2nc(-c3ccc(C)cc3)no2)cc(OC)c1OC
COc1cc(C2C(=O)N(C3CCCCC3)CC(=O)N2C2CCCCC2)ccc1OC(C)C (stereo not given)
Cc1ccc(-c2nc3sccn3c2Nc2ccc(C)c(C)c2)cc1
COc1ccc(OC)c(CNc2nc3ccc(C)cc3n3nnnc23)c1
CCOC(=O)c1cc(OC(=O)c2ccccc2Cl)n(-c2ccccc2)n1
COc1ccc(OC)c(NC(=O)[C@H](CSCc2ccccc2)N2Cc3ccccc3C2=O)c1
Cc1ccc(CNC(=O)Cn2c(=O)n(-c3ccc(C)cc3)c(=O)c3c2c2cc(C)ccc2n3C)cc1
CCOc1ccc(CN(CCc2ccc3c(c2)OCO3)Cc2cc(OC)c(OC)cc2OC)cc1

Activity change, negative = inhibition, inactive:
COc1cc(NC(=O)Cn2c(=O)n(CC3CCC(C(=O)NCCc4ccccc4)CC3)c(=O)c3ccccc32)cc(OC)c1 (stereo not given) 82.2%
Cc1ccc(NC(=O)c2ccc(CN3CCN(C)CC3)cc2)cc1Nc1nc(-c2cccnc2)cs1 4.21%
CCCCNC(=O)C1CCCN(S(=O)(=O)CCC)C1 (stereo not given) -28.9%
CCc1nn(CC(=O)NC2CC2)c(=O)c2cc3c(OC)cccc3n12 6.99%
COc1ccc(-n2ncc3c(NCCCOC(C)C)ncnc32)cc1 -21.2%
CCc1nn2c(=O)cc(COC(=O)c3cccc(NC(=O)CCc4ccccc4)c3)nc2s1 -20.6%
COc1ccc(-n2c(C)nc3c(cnn3-c3ccc(F)cc3)c2=O)cc1 -13.7%
CCc1ccc(C(=O)c2cn(CC(=O)Nc3ccc4c(c3)OCCO4)c3ccc(F)cc3c2=O)cc1 -5.85%
CCCCc1ccc(-n2nc3cc(C)c(NC(=O)c4ccc(C#N)cc4F)cc3n2)cc1 3.17%
COc1cc2c(=O)n(CCC(=O)NCC3CCCO3)c(=O)n(CC(=O)Nc3ccccc3C)c2cc1OC (stereo not given) -0.925%
CCn1cc(/C=C(\NC(=O)c2ccc(OC)cc2)C(=O)NCCCn2ccnc2)c2ccccc21 22.3%
COc1ccccc1C(=O)Oc1ccc(C(c2c(C)[nH][nH]c2=O)c2c(C)[nH][nH]c2=O)cc1 6.07%
Cc1nc(-c2ccc(F)cc2)sc1CCNC(=O)C(=O)Nc1ccc2c(c1)OCCO2 -3.29%
COC(=O)c1cc(-c2ccc(C)cc2)c2c(=O)n(C)c(=O)n(C)c2n1 -8.86%
COc1ccc(-c2cc(C(=O)Nc3c(C)n(C)n(-c4ccccc4)c3=O)no2)cc1OC 1.98%
CSc1nn(Cc2ccc(C)cc2)c(N)c1S(=O)(=O)c1ccccc1 -13.4%
Cc1ccc(S(=O)(=O)NC(=O)NN2CC3CCCC3C2)cc1 (stereo not given) 17.2%
O=C(CCCn1c(=O)c2cccn2c2ccccc21)NCCc1ccc(Cl)cc1 -16.3%
COc1ccc(CC(=O)Nc2ccc(-c3nc4ccccc4s3)c(C)c2)cc1OC 28.1%
COc1cccc(CNC(=O)c2cc(S(=O)(=O)N3CCCCC3)c[nH]2)c1 -14.1%
O=C(NCc1ccccc1Cl)c1ccc2oc(=O)n(Cc3ccccc3)c2c1 107%
Cc1cc(C)n(-c2nc3ccccc3nc2N2CCN(c3cccc(C(F)(F)F)c3)CC2)n1 -9.98%
CCOC(=O)c1c(NC(=O)C2c3ccccc3Oc3ccccc32)sc(C)c1C 10.1%
Cc1c(CC(=O)NCc2ccc(F)cc2)c(=O)oc2cc(O)c(Cl)cc12 5.38%
Cc1ccc(-n2c(SCc3ccccc3)nc3c([nH]c4ccccc43)c2=O)cc1 2.75%
Cc1ccc(NC(=O)c2ccccc2Br)c(C(=O)c2ccccc2)c1 -8.25%
CCC1(C)Cc2c(sc3nc(SC)n(-c4ccc(C)cc4)c(=O)c23)CO1 (stereo not given) 3.19%
Cc1nnc(NC(=O)c2ccccc2)s1 0.503%
COc1ccc(CNC(=O)c2ccc3nc(-c4ccc(F)cc4)c(-c4ccc(F)cc4)nc3c2)cc1 -1.27%
COc1ccc(Cn2c(SCc3ccc(C(=O)NC(C)c4ccccc4)cc3)nc3cccnc32)cc1 (stereo not given) 20.1%
Cc1cccc(N2CCN(C(=O)CS(=O)(=O)Cc3nc(-c4ccccc4C)oc3C)CC2C)c1 (stereo not given) -13.1%
COc1ccc(OC)c(NC(=O)Cn2c(=O)cc(-c3ccccc3)c3c(C)nn(C)c32)c1 4.77%
CCOC(=O)CNC(=O)N1CCN(c2nnc(C)c3c(C)n(-c4ccc(Cl)cc4)nc23)CC1 -0.391%
COc1cc(NC(=O)CCCOc2cc(=O)n(C)c3ccccc23)cc(OC)c1OC 9.53%
O=C(Nc1ccc(Cl)cc1)C(NS(=O)(=O)c1cccs1)c1ccccc1 (stereo not given) -2.51%
CC(C)(O)CC[C@@H](O)[C@](C)(O)[C@H]1CC[C@@]2(O)C3=CC(=O)[C@@H]4C[C@@H](O)[C@@H](O)C[C@]4(C)[C@@H]3CC[C@]12C 7.08%
Cc1cc(C)c2c(=O)cc(CSc3n[nH]c(C)n3)[nH]c2c1 -0.434%
CCc1ccccc1NC(=O)c1noc2c1CC(C(C)(C)C)CC2 (stereo not given) 19%
Cc1cccc(NC(=O)C(=O)NCCc2csc(-c3ccc(F)cc3)n2)c1C 4.25%
O=c1c(O)c(-c2cc(O)c(O)c(O)c2)oc2cc(O)cc(O)c12 3.52%
CCOC(=O)c1ccc(NC(=O)C2=C(C)Nc3nc(CCCO)nn3C2c2ccc(OC)cc2)cc1 (stereo not given) 21.8%
Cc1cccc(N2CCN(C(=O)c3ccc(Nc4nc5ccccc5n5nnnc45)cc3)CC2)c1C -3.55%
CC1=C(C(=O)Nc2cc(Cl)ccc2C)C(c2cccs2)n2ncnc2N1 (stereo not given) -12.1%
COc1ccc(NC(=O)CN2C(=O)c3cccnc3Sc3ccccc32)cc1OC -4.84%
Cc1cc(N2CCCCC2)nc2ccc(NC(=O)CCC(=O)N3CCN(c4ccccc4)CC3)cc12 -14.3%
CCSc1nc(-c2ccccc2F)nc2c1Cc1c(CO)cnc(C)c1O2 6.14%
COc1ccc(CCNC(=O)C(C)n2c(=O)cc(-c3ccccc3)c3c(C)nn(C)c32)cc1OC (stereo not given) 4.61%
CCC(=O)N1CCc2cc(CNC(=O)c3ccc(F)cc3)ccc21 14.6%
COc1cccc(N2CCN(C(=O)c3nn(C)c4c3CSc3ccc(C)cc3-4)CC2)c1 0.252%
CC1CCN(c2nc3ccc(C(=O)N4CCN(c5ccccc5)CC4)cc3s2)CC1 -5.74%
CCOc1ccc(N(CC)C(=O)c2cc3c(s2)-c2ccccc2OC3)cc1 -2.6%
COC(=O)c1cc2sc(Cl)cc2n1CC(=O)Nc1cc(C)cc(C)c1 12.6%
CCN(CC)CCOc1ccc(Cc2ccccc2)cc1 -5.88%
O=C(NCc1ccccc1F)c1ccc(CSc2nc3cccnc3n2Cc2ccccc2)cc1 -10.6%
Cc1nn2c(=O)cc(COC(=O)c3ccccc3NC(=O)COc3ccccc3C)nc2s1 2.81%
Cc1ccccc1NC(=O)Cn1c(=O)n(Cc2ccccc2)c(=O)c2c(C)c(C)sc21 0.796%
N#CC1=C2SCN(C3CCCCC3)CN2C(=O)CC1c1ccc(Cl)cc1 (stereo not given) 1.93%
N#Cc1nc(-c2ccc(COc3ccccc3)o2)oc1N1CCCCC1 -4.5%
Cc1ccc(CNC(=O)C(=O)NCC(c2ccco2)S(=O)(=O)c2ccccc2)cc1 (stereo not given) 13.1%
COC(=O)c1c(N)n(-c2ccc(OC)c(OC)c2)c2nc3ccccc3nc12 -11.5%
COC(=O)c1cc2occc2n1CC(=O)Nc1ccc(N(C)C)cc1 -10.9%
CCCCN1CC(c2nc3ccccc3n2CCCCOc2cccc(C)c2C)CC1=O (stereo not given) -8.52%

Reference: PubChem BioAssay AID1963576 (National Center for Advancing Translational Sciences (NCATS), 2024)
